Measured values taken from publication PMC4336329 (PLoS ONE, 2015).
Among all 310,000 compounds or so, about 14,000 (4.5%) showed an effect of 50% or more. Effects have a minus sign here. This is one part of the list.

target: human ether-à-go-go-related gene (hERG) potassium channel (human, UniProt Q12809); assay: primary screen, population patch clamp on CHO cells stably expressing hERG
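Also: peak tail current of the secondary pulse compared with the same well before compound.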

Sequence of human ether-à-go-go-related gene (hERG) potassium channel (Q12809 whole entry, looked up): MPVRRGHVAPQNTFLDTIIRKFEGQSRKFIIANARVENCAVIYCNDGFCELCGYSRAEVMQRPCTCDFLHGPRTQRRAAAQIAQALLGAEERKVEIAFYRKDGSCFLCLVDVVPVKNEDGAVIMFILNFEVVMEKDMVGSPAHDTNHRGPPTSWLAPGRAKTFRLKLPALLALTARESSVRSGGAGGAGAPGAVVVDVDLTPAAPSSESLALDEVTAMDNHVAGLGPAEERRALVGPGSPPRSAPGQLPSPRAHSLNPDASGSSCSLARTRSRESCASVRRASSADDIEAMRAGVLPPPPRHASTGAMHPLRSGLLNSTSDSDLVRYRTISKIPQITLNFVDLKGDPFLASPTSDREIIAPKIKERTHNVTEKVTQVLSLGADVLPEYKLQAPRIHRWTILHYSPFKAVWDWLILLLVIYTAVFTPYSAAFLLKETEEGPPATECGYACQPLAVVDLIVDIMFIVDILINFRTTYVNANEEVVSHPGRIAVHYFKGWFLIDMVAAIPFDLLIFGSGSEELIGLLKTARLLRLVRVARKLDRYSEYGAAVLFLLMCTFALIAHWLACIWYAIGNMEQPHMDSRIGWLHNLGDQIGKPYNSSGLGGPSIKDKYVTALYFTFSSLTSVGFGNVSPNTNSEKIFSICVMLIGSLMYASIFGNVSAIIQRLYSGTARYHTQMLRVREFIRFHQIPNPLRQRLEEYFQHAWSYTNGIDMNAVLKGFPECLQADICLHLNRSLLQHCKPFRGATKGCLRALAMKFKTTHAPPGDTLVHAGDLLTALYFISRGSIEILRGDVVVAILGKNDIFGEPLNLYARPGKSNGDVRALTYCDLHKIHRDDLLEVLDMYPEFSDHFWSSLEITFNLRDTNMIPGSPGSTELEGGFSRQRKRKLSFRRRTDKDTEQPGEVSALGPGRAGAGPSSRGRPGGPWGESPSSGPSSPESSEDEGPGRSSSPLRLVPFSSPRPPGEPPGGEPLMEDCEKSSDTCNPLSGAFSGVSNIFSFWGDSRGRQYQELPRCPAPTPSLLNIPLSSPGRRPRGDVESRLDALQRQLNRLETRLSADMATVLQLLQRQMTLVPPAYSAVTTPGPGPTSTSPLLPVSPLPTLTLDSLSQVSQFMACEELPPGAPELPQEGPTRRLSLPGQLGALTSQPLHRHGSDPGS

| SMILES | hERG current change (%, negative = inhibition) at 10uM |
| --- | --- |
| O=C(CCCc1ccccc1)Nc1nccs1 | -1.81% |
| COc1ccc2[nH]c(=O)c(CN(C(C)=O)c3ccc(C)c(C)c3)cc2c1 | -8.03% |
| Cc1cc(C)c(C)c(S(=O)(=O)N[C@@H](C)C(=O)OCC(N)=O)c1C | 8.13% |
| CCOC(=O)c1c(C)n(C)c2ccc(OC(=O)c3ccco3)cc12 | 10.1% |
| CCOc1ccc(-c2nnc(N)o2)cc1 | 9.64% |
| Cc1ccc(S(=O)(=O)N2CCOCC2)cc1C(=O)NNC(=O)c1ccoc1C | -0.103% |
| CCCN(C(=O)Cc1ccc(S(=O)(=O)N2CCOCC2)s1)c1c(N)n(Cc2ccccc2)c(=O)[nH]c1=O | 16.8% |
| O=C(Nc1ccc(Br)cc1)N1CCCCC1 | 12.1% |
| COCc1cc(C)nc(OCC(=O)N/N=C/c2ccc(C)o2)c1C#N | 6.62% |
| CCOC(=O)C1=C(C)N(C)C(C)=C(C(=O)OCC)C1c1ccccn1 | 3.24% |
| O=C(Nc1ccccc1)c1nnsc1S(=O)c1ccc(Cl)cc1 (stereo not drawn) | 23.4% |
| CC(C(=O)N1CCN(c2ccccc2)CC1)N1C(=O)C2CC=CCC2C1=O (stereo not drawn) | 7.43% |
| O=C(O)c1ccc(NC(=O)c2ccccc2NC(=O)c2ccccc2Cl)cc1 | 19.2% |
| CCCCn1nnc(NC(=O)COc2cc(C)ccc2C(C)C)n1 | 7.24% |
| Cc1ccc2c(C)c(C(=O)N(C)Cc3nccn3C)oc2c1C | -26.4% |
| COc1ccc(N(CC(=O)NC(C)C)C(=O)CCC(=O)Nc2ccccn2)cc1 | 8.24% |
| CC1CCN(Cc2cc(=O)oc3ccc4ccccc4c23)CC1 | -32.7% |
| C=CCc1ccccc1OCCNCc1ccccc1.O=C(O)C(=O)O | 2.51% |
| Cc1cc(C(=O)N2CCC(C(=O)O)CC2)c(C(F)(F)F)o1 | 12.9% |
| CC(C)(C)c1ccc(OCCC(=O)OCC(=O)Nc2ccc(N3CCOCC3)cc2)cc1 | 22.7% |
| COc1ccc(C2SCC(=O)N2c2c(C)n(C)n(-c3ccccc3)c2=O)cc1OC (stereo not drawn) | 13.6% |
| COc1ccc(C2C(C(=O)c3ccc(C)o3)=C(O)C(=O)N2CC2CCCO2)cc1OC (stereo not drawn) | 20.7% |

| SMILES | hERG current change (%, negative = inhibition) at 10uM |
| --- | --- |
| CCOC(=O)N1CCN(c2c(NCc3ccc(F)cc3)c(=O)c2=O)CC1 | -4.47% |
| COc1c(/C=N/Nc2ccc(C(=O)O)cc2)c(CCN(C)C(C)=O)cc2c1OCO2 | 12.5% |
| Cc1ccc(-c2cc(C(=O)Nc3ccc(S(=O)(=O)Nc4onc(C)c4C)cc3)c3ccccc3n2)cc1 | 4.48% |
| O=C(NCc1cccs1)C1CCC(CNS(=O)(=O)c2ccccc2)CC1 (stereo not drawn) | -2.7% |
| O=C(Cc1ccc(Br)c2ccccc12)N/N=C/c1ccccn1 | -31% |
| COc1cccc(NC(=O)N(CCN(C)C)C(C)c2cccnc2)c1 (stereo not drawn) | -20.7% |
| O=C(N/N=C\c1c(O)ccc2ccccc12)c1cncc(Br)c1 | 0.171% |
| CCOC(=O)CN1C(=O)S/C(=C/c2ccco2)C1=O | 9.39% |
| Cc1ccccc1C(=O)/C=C1/SCC(=O)N1C | 15.4% |
| Cc1cccc(C(=O)NNC(=O)c2ccco2)c1 | 16.2% |
| O=C(NNC(=O)c1ccccc1Cl)c1ccco1 | 3.95% |
| CCN(Cc1ccccc1)C(=O)CSc1nc(C)cc(C)c1C#N | -26.1% |
| CC1(C(=O)O)CCC(C(=O)NC2CCCCCC2)C1(C)C (stereo not drawn) | -0.798% |
| CN1CCc2nc(SCC(=O)Nc3ccc(OC(F)(F)F)cc3)c(C#N)c(-c3cccs3)c2C1 | -12.8% |
| CCN(CC)c1ccc(/C=N/N2C(=O)c3ccccc3C2=O)c(O)c1 | -10.6% |
| Cc1ccc(C2=Nc3ccccc3SC(c3cccc([N+](=O)[O-])c3)C2)cc1 (stereo not drawn) | 19.8% |
| COc1ccccc1Nc1nc2nonc2nc1N1CCC(C)CC1 | 7.23% |
| O=C(NCC(c1cccnc1)N1CCN(c2ccc(F)cc2)CC1)Oc1ccccc1 (stereo not drawn) | -26.4% |
| CC(OC(=O)Cc1c[nH]c2ccccc12)C(=O)c1ccccc1 (stereo not drawn) | -7.25% |
| COc1ccc(-c2[nH]c(-c3ccc(C)cc3)nc2SCC(=O)Nc2nccs2)cc1 | 26.3% |
| COCCCNC(=O)c1ccc2nc(Cc3ccc(OC)cc3)oc2c1 | 12% |
| Cn1c(C(=O)N[C@@H](Cc2ccccc2)C(=O)O)cc2cc(Cl)ccc21 | 20.5% |

| SMILES | hERG current change (%, negative = inhibition) at 10uM |
| --- | --- |
| Cc1nn(CCc2nn[nH]n2)c2nc(-c3ccc(Br)cc3)cc(C(F)(F)F)c12 | 39.8% |
| Cc1ccc(S(=O)(=O)NCC(c2ccco2)N2CCc3ccccc3C2)cc1 (stereo not drawn) | -2.97% |
| O=C(N=NC(=O)c1ccc2c(O)n(C3CCCCC3)c(O)c2c1)c1cccnc1 | 7.84% |
| N#Cc1c(-c2ccccc2)oc(=O)c2ccccc12 | 6.72% |
| Cc1ccc(S(=O)(=O)Nc2ccc(C(=O)NCc3ccccn3)cc2)cc1 | -7.17% |
| CC(=O)NC(Cc1ccccc1)C(=O)NC1CCN(c2ncccc2[N+](=O)[O-])CC1 (stereo not drawn) | 17.2% |
| CCOc1cc(/C=C\c2[nH]c(=O)[nH]c(=O)c2[N+](=O)[O-])ccc1OC(C)CC (stereo not drawn) | 4.84% |
| CCOC(=O)Cn1c(=O)oc2cc(S(=O)(=O)N3CCc4ccccc43)ccc21 | -2.03% |
| Cc1cc(C(=O)NC2CCCc3c2cnn3-c2cc(F)cc(F)c2)nn1C (stereo not drawn) | -2.15% |
| Cc1ccc(NC(=O)COC(=O)c2cc(Cl)cc(Cl)c2)c(Br)c1 | -3.47% |
| O=c1c2[nH]c3cccc(Cl)c3c2ncn1Cc1ccncc1 | -13.6% |
| CN(CC(=O)NCc1ccccn1)S(=O)(=O)c1ccc(Br)cc1 | -3.43% |
| CN(C)c1ccnc2sc3c(=O)n(-c4ccccc4)cnc3c12 | -17.9% |
| CCOc1ccc(NC(=O)C2CC(=O)N3CCCN=C3S2)cc1 (stereo not drawn) | 8.89% |
| COc1ccc2c(c1)SC(C)CC2=O (stereo not drawn) | 6.88% |
| CCCCCOc1cccc(C2C(C(=O)c3cccs3)=C(O)C(=O)N2CCN2CCOCC2)c1 (stereo not drawn) | 6.36% |
| Cc1cc(C(N)=O)nn1-c1c(Cl)cc(Cl)cc1Cl | 5.66% |
| CCOC(=O)c1c(C)[nH]c(O)c1C=Nc1ccc(Cl)cc1 | 13.6% |
| Cc1c(C)c2c(OCC(=O)Nc3cccnc3)cc3c(c2oc1=O)CCC(C)(C)O3 | 12% |
| O=C(c1cc2cc(Cl)ccc2[nH]1)N1CCN(c2ccccc2F)CC1 | 21.9% |
| COc1ccc(CC(=O)NC2CC(C)(C)NC(C)(C)C2)cc1 | 18.2% |
| COCCCN(C(=S)Nc1ccc(OC)cc1)C(C)c1ccncc1 (stereo not drawn) | -18.5% |

| SMILES | hERG current change (%, negative = inhibition) at 10uM |
| --- | --- |
| CCc1ccc(OCc2nnc(-c3ccccc3Br)o2)cc1 | 0.413% |
| CN(CC(=O)Nc1ccc(Cl)c(C(F)(F)F)c1)C(=O)/C=C/c1ccco1 | 5.99% |
| O=C(CSc1nnc(SCc2ccc(Cl)cc2)s1)c1ccc2c(c1)OCO2 | 9.81% |
| COc1ccccc1CNC(=O)c1ccc2nc3[nH]c4ccccc4c3nc2c1 | -17.2% |
| O=S(=O)(/C=C/c1ccccc1)N1CCN(c2nc(-c3cccnc3)nc3ccccc23)CC1 | -23.6% |
| O=S(=O)(c1ccc(Cl)cc1)N1CCC(O)(CN2CCN(Cc3ccccc3)CC2)CC1 | -75.8% |
| CC1=CN2C(=NC(=O)CC2(C)C(=O)N(CC(=O)NC2CCCC2)c2cc(C)cc(C)c2)C=C1 (stereo not drawn) | 35.6% |
| CC(=O)Nc1ccc(N2CCCC2)cc1 | 6.33% |
| C=CCSc1nnc(N2C(=O)C(O)=C(C(=O)c3ccco3)C2c2ccc(F)cc2)s1 (stereo not drawn) | 8.02% |
| N#Cc1nc(COc2ccc(-c3ccccc3)cc2)oc1NCCCN1CCOCC1 | -44.4% |
| O=C(COC(=O)C1c2ccccc2Oc2ccccc21)NC1CCS(=O)(=O)C1 (stereo not drawn) | 12.5% |
| O=[N+]([O-])c1ccc(N2CCCCC2)cc1NCCOc1ccccc1 | -2.17% |
| CC(NC(=O)c1ccc(NS(C)(=O)=O)cc1)c1ccccc1 (stereo not drawn) | -14.8% |
| Cc1noc(C)c1S(=O)(=O)N1CCCC1C(=O)O (stereo not drawn) | 20% |
| Cc1nc(SC(C)C(=O)NC2CCCC2)c2ccccc2n1 (stereo not drawn) | -15.8% |
| Cc1c(NC(=O)C2(c3ccccc3)CCOCC2)c(=O)n(-c2ccccc2)n1C | 1.67% |
| Cc1c(C(=O)N(C)CCC#N)oc2ccc(S(=O)(=O)N3CCOCC3)cc12 | 10.1% |
| C/C(=N/N=C(\C)c1ccccc1O)c1ccccc1O | 16.2% |
| COC(=O)c1ccc([C@@H]2C[C@H]3CN(Cc4cccnc4)C(=O)[C@]34CCCN24)cc1 | -1.19% |
| CCOc1cc(-c2cc(-c3ccc(N)cc3)nc(N)c2C#N)ccc1O | -1.19% |
| CCCCC(=O)Nc1ccc(C(=O)OC2CCCCC2)cc1 | 10.9% |
